In article PMC9911399, “Two distinct binding modes provide the RNA-binding protein RbFox with extraordinary sequence specificity” one finds binding signal data, which are given here for 20 molecules.

T1: RBFOX1 RRM RbFoxmut (Fox-RRM*) (Homo sapiens, UniProt Q9NWB1 109-208, R118D;E147R;N151S;E152T)
T1 sequence: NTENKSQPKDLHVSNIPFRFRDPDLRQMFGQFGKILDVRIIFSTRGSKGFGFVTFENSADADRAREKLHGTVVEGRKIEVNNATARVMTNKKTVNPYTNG

B1: AACCUCG (DNA:RNA)
RNA: GGGAGACCGGAAUUCAGAUUGUCCAACCUCGUUAAAUCCCGUCGUAGCCACCA
DNA 1: CAATCTGAATTCCGGTCTCCC
DNA 2: TGGTGGCTACGACGGGATT
B2: UGUUACG (DNA:RNA)
RNA: B1 RNA with A25U, A26G, C27U, C28U, U29A
DNA 1: CAATCTGAATTCCGGTCTCCC
DNA 2: TGGTGGCTACGACGGGATT
B3: ACUACCC (DNA:RNA)
RNA: B1 RNA with A26C, C27U, C28A, U29C, G31C
DNA 1: CAATCTGAATTCCGGTCTCCC
DNA 2: TGGTGGCTACGACGGGATT
B4: UGUAACC (DNA:RNA)
RNA: B1 RNA with A25U, A26G, C27U, C28A, U29A, G31C
DNA 1: CAATCTGAATTCCGGTCTCCC
DNA 2: TGGTGGCTACGACGGGATT
B5: CCCGGAC (DNA:RNA)
RNA: B1 RNA with A25C, A26C, C28G, U29G, C30A, G31C
DNA 1: CAATCTGAATTCCGGTCTCCC
DNA 2: TGGTGGCTACGACGGGATT
B6: GUGAGAA (DNA:RNA)
RNA: GGGAGACCGGAAUUCAGAUUGUCCGUGAGAAUUAAAUCCCGUCGUAGCCACCA
DNA 1: CAATCTGAATTCCGGTCTCCC
DNA 2: TGGTGGCTACGACGGGATT
B7: AUCCCAA (DNA:RNA)
RNA: B1 RNA with A26U, U29C, C30A, G31A
DNA 1: CAATCTGAATTCCGGTCTCCC
DNA 2: TGGTGGCTACGACGGGATT
B8: UGUACAA (DNA:RNA)
RNA: B6 RNA with G25U, U26G, G27U, G29C
DNA 1: CAATCTGAATTCCGGTCTCCC
DNA 2: TGGTGGCTACGACGGGATT
B9: GCUAGUA (DNA:RNA)
RNA: B6 RNA with U26C, G27U, A30U
DNA 1: CAATCTGAATTCCGGTCTCCC
DNA 2: TGGTGGCTACGACGGGATT
B10: AUGGAGG (DNA:RNA)
RNA: B1 RNA with A26U, C27G, C28G, U29A, C30G
DNA 1: CAATCTGAATTCCGGTCTCCC
DNA 2: TGGTGGCTACGACGGGATT
B11: GGCCCCA (DNA:RNA)
RNA: B1 RNA with A25G, A26G, U29C, G31A
DNA 1: CAATCTGAATTCCGGTCTCCC
DNA 2: TGGTGGCTACGACGGGATT
B12: UCAUAUA (DNA:RNA)
RNA: B6 RNA with G25U, U26C, G27A, A28U, G29A, A30U
DNA 1: CAATCTGAATTCCGGTCTCCC
DNA 2: TGGTGGCTACGACGGGATT
B13: CAGCCCA (DNA:RNA)
RNA: B1 RNA with A25C, C27G, U29C, G31A
DNA 1: CAATCTGAATTCCGGTCTCCC
DNA 2: TGGTGGCTACGACGGGATT
B14: CCUGGGU (DNA:RNA)
RNA: B6 RNA with G25C, U26C, G27U, A28G, A30G, A31U
DNA 1: CAATCTGAATTCCGGTCTCCC
DNA 2: TGGTGGCTACGACGGGATT
B15: UUGGAGC (DNA:RNA)
RNA: B6 RNA with G25U, A28G, G29A, A30G, A31C
DNA 1: CAATCTGAATTCCGGTCTCCC
DNA 2: TGGTGGCTACGACGGGATT
B16: AUUCCCU (DNA:RNA)
RNA: B1 RNA with A26U, C27U, U29C, G31U
DNA 1: CAATCTGAATTCCGGTCTCCC
DNA 2: TGGTGGCTACGACGGGATT
B17: AAUUUCC (DNA:RNA)
RNA: B1 RNA with C27U, C28U, G31C
DNA 1: CAATCTGAATTCCGGTCTCCC
DNA 2: TGGTGGCTACGACGGGATT
B18: CUCAGAG (DNA:RNA)
RNA: B6 RNA with G25C, G27C, A31G
DNA 1: CAATCTGAATTCCGGTCTCCC
DNA 2: TGGTGGCTACGACGGGATT
B19: UCAUAGC (DNA:RNA)
RNA: GGGAGACCGGAAUUCAGAUUGUCCUCAUAGCUUAAAUCCCGUCGUAGCCACCA
DNA 1: CAATCTGAATTCCGGTCTCCC
DNA 2: TGGTGGCTACGACGGGATT
B20: CGGUAAU (DNA:RNA)
RNA: B6 RNA with G25C, U26G, A28U, G29A, A31U
DNA 1: CAATCTGAATTCCGGTCTCCC
DNA 2: TGGTGGCTACGACGGGATT

Positions count from the first letter of the chain named. Some of the results follow.

In this assay the target is T1, RBFOX1 RRM RbFoxmut (Fox-RRM*). The experiment in a line: EMSA; HiTS-Eq, 1 nM pool, 10 min; buffer printed only for the single-RNA assays: 10 mM Tris pH 7.5, 150 mM NaCl, 3.4 mM EDTA, 0.001% NP-40, 30 C. The conditions noted are these: tags: His6 N-terminal (pET28a); label: 5' 32P. In a few lines: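 Purified RbFox RRM (wild type or mutant) was equilibrated for 10 min in 50 µL with 1 nM of a 5′-radiolabelled pool of RNA with 7 randomized nucleotides, its flanks annealed to DNA oligonucleotides, across increasing protein concentrations. Free RNA was separated by 8% native PAGE, excised, reverse-transcribed, PCR-barcoded and sequenced on an Illumina HiSeq 2500. Relative association constants came from read-count changes of each variant against the control reaction, normalised to the cognate motif.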
Take B1: the binding signal was 0.0977 KA relative to UGCAUGU. On to B2, for which the binding signal was 0.334 KA relative to UGCAUGU.

As to B3, the binding signal is 0.0857 KA relative to UGCAUGU.

Turning to B4, the binding signal is 0.077 KA relative to UGCAUGU. As for B5, the figure is 0.0829 KA relative to UGCAUGU. B6: the binding signal is 0.123 KA relative to UGCAUGU. As for B7, the binding signal was 0.124 KA relative to UGCAUGU. Regarding B8, the binding signal was 0.0527 KA relative to UGCAUGU.

For B9, the binding signal is 0.126 KA relative to UGCAUGU. As for B10, the figure is 0.119 KA relative to UGCAUGU; as for B11, 0.091 KA relative to UGCAUGU.

As for B12, the binding signal is 0.154 KA relative to UGCAUGU.

For B13, the binding signal was 0.0935 KA relative to UGCAUGU. As to B14, the binding signal is 0.0999 KA relative to UGCAUGU. B15: the binding signal is 0.114 KA relative to UGCAUGU. Consider B16, for which the binding signal was 0.0756 KA relative to UGCAUGU. For the molecule B17, the binding signal is 0.0644 KA relative to UGCAUGU. B18: the binding signal was 0.137 KA relative to UGCAUGU.

Take B19: the binding signal is 0.116 KA relative to UGCAUGU.

On to B20, for which the binding signal was 0.0812 KA relative to UGCAUGU.
